Data as given in the supplement of paper PMC3334620.
In all, about 33,000 sequences were measured (“E-score (-0.5 to 0.5)”: median about -0.021, highest 2% from about 0.32 on). The list shows a part of the results.

These sequences were tested against T1, Zap1 (UniProt P47043) (assay: PBM E-score (8-mer binding enrichment) (E-score (-0.5 to 0.5)); higher = stronger / more preferred TF binding; most listed sequences are background and not binding sites). Conditions: protein concentration: 200 nM; construct: GST-full length.
T1 sequence: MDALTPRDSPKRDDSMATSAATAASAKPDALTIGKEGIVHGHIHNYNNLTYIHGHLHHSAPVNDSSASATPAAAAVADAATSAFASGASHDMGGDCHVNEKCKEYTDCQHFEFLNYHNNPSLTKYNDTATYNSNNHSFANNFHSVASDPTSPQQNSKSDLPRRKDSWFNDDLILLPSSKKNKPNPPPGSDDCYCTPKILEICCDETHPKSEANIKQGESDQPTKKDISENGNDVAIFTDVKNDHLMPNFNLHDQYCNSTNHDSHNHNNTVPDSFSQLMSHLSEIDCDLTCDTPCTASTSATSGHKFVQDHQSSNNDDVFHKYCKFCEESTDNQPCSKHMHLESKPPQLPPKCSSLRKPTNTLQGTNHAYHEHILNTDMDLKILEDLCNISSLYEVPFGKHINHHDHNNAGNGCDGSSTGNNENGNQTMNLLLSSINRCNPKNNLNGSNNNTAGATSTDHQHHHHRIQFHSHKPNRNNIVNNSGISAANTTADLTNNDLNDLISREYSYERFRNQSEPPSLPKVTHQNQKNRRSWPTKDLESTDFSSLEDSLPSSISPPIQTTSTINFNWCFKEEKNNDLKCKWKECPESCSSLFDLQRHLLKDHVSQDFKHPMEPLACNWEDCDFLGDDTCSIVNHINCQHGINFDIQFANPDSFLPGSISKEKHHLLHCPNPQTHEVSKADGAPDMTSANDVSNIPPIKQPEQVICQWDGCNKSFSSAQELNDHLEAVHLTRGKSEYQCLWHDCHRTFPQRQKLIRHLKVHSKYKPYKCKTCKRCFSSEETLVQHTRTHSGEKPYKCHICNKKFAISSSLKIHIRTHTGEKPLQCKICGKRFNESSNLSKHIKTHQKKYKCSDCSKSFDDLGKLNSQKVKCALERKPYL
In short: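 Full-length yeast transcription factors or their DNA-binding domains, GST-tagged and expressed with PURExpress, were applied at about 100-200 nM to universal all-10-mer Agilent arrays. These arrays had been made double-stranded by primer extension on fresh or once-stripped slides. Detection used fluorescent anti-GST, normalisation used masliner, and E-scores for ungapped eight-base words pooled with reverse complements came from the Universal PBM Analysis Suite.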

Sequence | PBM E-score
CTCTGAGC | -0.135
GGTCCACA | -0.126
AACACTCG | 0.0851
CTACTGGC | -0.244
CTGGCCCC | -0.0927
CTCCAGCA | -0.176
ATGACCAA | 0.211
AATGTGAT | 0.0415
GTCATGAA | 0.231
AAGATCGA | 0.0527
CTCGTCCA | -0.09
AGGGTGTA | 0.262
AGCGCACC | -0.143
GTCGACCA | 0.0364
GATTCACC | -0.0698
ACGGTCGC | 0.00876
AGGCTACT | -0.135
AAATGAGG | -0.092
ATGTCGAC | 0.027
GCCTCGCC | -0.192
GTATATAC | 0.074
AAACTCCG | -0.0502
ACCTTTAA | 0.383
TCGACGCA | -0.0587
CATTAAGC | 0.0153

Sequence | PBM E-score
CTGTCATC | -0.138
GCGGGCTA | -0.198
AAACCCCG | 0.198
GATTACTA | 0.09
CCGTACTA | 0.163
ACGAGCAT | -0.24
CCAGGGTA | 0.323
CACTAGCG | -0.00843
CTTTGGAC | 0.203
CAAGCCTA | -0.188
ATTCTCGG | 0.0582
TCCCGAGA | -0.103
GCACAAGA | 0.0218
AGCTTTCG | -0.205
CAAGGTCC | 0.151
ACCAACGA | 0.0812
GTCACCAC | 0.218
TATCCCAA | 0.0555
ACGTTACG | 0.0601
GTAACCCA | 0.468
AGACTTAG | -0.306
ACGACACG | 0.031
ACTAAGAA | 0.0402
AGGAACAA | 0.00761
TACATTGA | -0.0148

Sequence | PBM E-score
AGTTCGGC | 0.0158
TATGAGGA | -0.191
CCCACTCA | -0.134
CATCGTAG | -0.237
CCTAGTTA | 0.194
ACGCTTAC | -0.151
GGACCAAA | 0.0834
ACGAGTCC | -0.0454
GGCCATAC | 0.0189
ATTGTAGC | -0.0857
CATATCAC | -0.057
AGGTATCA | 0.116
ATCTATCC | -0.046
GGTCTTGA | 0.11
CTGCTATC | 0.0299
CTGAGGAA | -0.0614
AGGGTTAA | 0.461
AATTCGGG | -0.0414
AAAGCCAG | -0.201
ACAGAATG | -0.139
ACATTTGC | -0.00108
AAAACGCA | 0.107
ACAACCCG | 0.398
GGCCGCTA | 0.0408
ATAGTATC | 0.0394

Sequence | PBM E-score
AATGGACC | 0.179
ACCTGATG | 0.201
AGCAAGTA | -0.0454
CATGACAA | -0.0635
GAGAATAC | 0.0319
CCCCGTCC | -0.323
AAGCCGCG | 0.0642
CCGCATGA | 0.114
ACGCCATA | -0.104
CCTCTAGC | -0.107
CAGCCAGG | -0.267
ATACCCAT | 0.128
CTTTGTAC | 0.0143
AACACGTG | 0.0559
GGTCTTAA | 0.148
ACTGCCAG | -0.0642
CTAGGCCA | -0.0744
TCTTGAAA | 0.295
TGACTTAA | 0.0206
ACACAAGC | 0.0416
CGAATCCC | -0.196
ACACTACT | 0.0202
AAATTCAA | 0.0186
CATCCTAA | 0.0763
GGCCAAAA | 0.139

Sequence | PBM E-score
AGATGCGG | 0.0772
CATAACAC | 0.19
CACCATAG | 0.132
CCAACCTA | 0.115
ACGACACC | 0.0752
CATGCAAA | -0.102
CATCTCAG | -0.08
CAGCTGCG | -0.251
ACCGTAGA | 0.0259
GTACTTCA | 0.215
ACGCGGAA | 0.061
AACCACCG | 0.227
CTATCGAA | -0.177
CATCATCA | -0.0606
GACATTTA | -0.148
AGCACTCA | -0.0177
CGTACACG | -0.0742
AAGGGCGG | 0.11
AAAGAAGA | -0.153
ACGGTGGC | -0.0481
CGTTGGAC | -0.17
CCGGTATC | 0.0178
AACGCAGG | -0.0973
ACCCGGTG | 0.195
ACGATGAA | 0.0365

Sequence | PBM E-score
CAAATGGC | -0.0735
CGACGAAA | 0.0374
AATTCCAT | -0.0827
CGGTCTGC | -0.00624
ATTGTCCC | 0.0063
GATAACCC | 0.47
GACTTGGA | -0.3
AACTTTAG | 0.116
AATACACG | -0.0282
AGCCCTCC | -0.18
CGAGGCGA | -0.0393
AGTTACGA | 0.226
CGACATGC | -0.133
AGGCGGAC | -0.157
GCTGAAGC | -0.138
CTCTCTTC | -0.249
AAGCTCAA | -0.127
AGCGAGCG | -0.109
GATATTAA | 0.0346
GATCTTAC | -0.146
CTTCAAGA | 0.186
GACACGTC | -0.278
AGGCTTCG | 0.021
ACGCTCCG | -0.196
GATCTTAA | 0.0896

Sequence | PBM E-score
GCACGCGC | -0.113
ACGAGATC | -0.172
ACTGGGCT | -0.162
GTTAAGGA | 0.191
AGTAATTG | 0.0247
CTTGCCTA | -0.167
AGACTGAC | -0.202
ATGTATAG | -0.101
AGTTCGTC | 0.0507
CACCGGCA | 0.0433
CTGCGTCA | -0.0274
CGCGTCCC | 0.00695
ATTGCCTA | -0.209
AGTGCCTA | -0.152
ACTGCGAG | -0.164
AATTTGGG | 0.146
ATCCCAAT | -0.0767
AGAGCGCA | -0.324
AACTCGAC | 0.0727
AGTCAATC | -0.07
AAGAGGGT | 0.213
ACAACTGT | 0.0855
CTAGCATC | -0.121
CGGGACGC | -0.133
AAGAGCTC | -0.272

Sequence | PBM E-score
ACCCGATC | 0.0875
CACCTAGG | -0.0336
AAGTGCAG | -0.156
CTCTCTAA | -0.191
CTGAGCCC | -0.179
ATCTCCTA | -0.257
AGGTCTCC | 0.00142
CAATAGAA | -0.187
ACTACACC | -0.0133
ACGTGCAC | -0.164
GCCTGAGC | -0.178
ACTACGGG | 0.0981
GTGGCAAA | 0.0924
ATGGGGGG | -0.045
GAGCATTA | -0.221
AGGAACGC | -0.189
CTTTCGGA | -0.121
CGCCTTCA | -0.26
AACTGGAA | 0.0221
CCGCTTGC | -0.121
CATCAATC | -0.0837
GAGGAACC | 0.108
AGTGTGTG | 0.0959
ATACAGCC | -0.0427
CACCCCGC | 0.237

Sequence | PBM E-score
AATATGGA | 0.035
ACGCACCT | -0.0346
ATGGACCG | 0.0558
CCATACCA | 0.0975
CTTGTGAC | 0.0651
CATGGTTC | 0.132
ATTGAGGC | 0.0527
AGCTCAGA | -0.119
CAGGTTCC | 0.0995
GGTCTTAC | 0.103
ACTTGGCC | 0.0412
GCGGTGTA | 0.063
AGATACCT | 0.125
CTAGAAAG | 0.052
GGGCAATA | -0.159
ATATCAGC | -0.307
CGACTTTA | 0.0644
TGAATGAA | 0.0566
AAAGACGG | -0.00219
